In all, about 48,000 compounds went through this assay and about 120 (0.25%) were called active. Not shown: some 4% with an inconclusive outcome. The call rests on the fitted dose curve; in most records, active means well fitted activation curve with a large enough effect; inconclusive means small, poorly fitted or top-dose-only effect, or another doubt; inactive means no such curve, though single readings can be large or run the other way. This is one part of the list.
Assay: Primary qHTS for Identification of Small Molecule Activators of Huntingtin-Antisense Promoter Activity; further: nearly all actives have a fitted effect of over 55% in size
Conditions: HEK293 HTT-AS promoter firefly luciferase reporter, 24 h; series mostly up to 57.5 µM; activity change, positive = activation: at the top concentration
How it was run: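 Firefly luciferase signal from promoter-reporter HEK293 cells was scaled between vehicle (0%) and zero RLU (-100%). Compounds were tested at final concentrations of up to 57.5 uM over 24 h at 37 degrees C. PTC124 at 50 uM final served as control inhibitor.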

Activity change, positive = activation, inactive:
COc1ccc(C(C)n2c(C)c3c(C)nnc(C)c3c2C)cc1 (stereo not given) -17.5%
CCC(C)OC(=O)/C(C#N)=C\c1ccc(-c2cccc(C(F)(F)F)c2)o1 (stereo not given) -0.934%
Cc1cccc(C)c1Nc1nc2ccccc2nc1NS(=O)(=O)c1ccccc1 -44.3%
COc1ccc(S(=O)(=O)N(CC(=O)NCc2ccccc2)c2ccc(C)cc2)cc1OC -5.15%
CC1CCN(S(=O)(=O)c2ccc3c(c2)N(CC(=O)NC(C)C)C(=O)CO3)CC1 -11.4%
COc1cccc(CNC(=O)CSc2ncc(S(=O)(=O)c3ccc(Br)cc3)c(=O)[nH]2)c1 -7.75%
COc1ccc(CNC(=O)c2ccc3c(c2)CCN3S(=O)(=O)c2ccc(C)cc2)cc1 -22.7%
Cc1ccc(NC(=O)C2CCCN2S(=O)(=O)c2cccc3nsnc23)cc1Cl (stereo not given) -30.1%
COc1ccc(CNC(=O)CSc2ncc(S(=O)(=O)c3ccc(C)c(Cl)c3)c(=O)[nH]2)cc1 1.94%
Cc1ccccc1C(=O)N1CCN(CCc2ccccn2)CC1 -8.17%
CC1CCN(S(=O)(=O)c2ccc3c(c2)CCN3C(=O)Nc2ccc(Br)cc2)CC1 25.7%
Cc1ccc(CNC(=O)c2c(O)nc3c(C)cccn3c2=O)cc1 6.7%
CCN(CC)CCCNC(=O)c1ccc2c(c1)NC(=O)C(CS(=O)(=O)Cc1cccc(Br)c1)N2 (stereo not given) -21.9%
Cc1nc2ccc(S(=O)(=O)NC(CC(C)C)C(=O)N3CCN(c4ccc(F)cc4)CC3)cc2s1 (stereo not given) -38.6%
CN(C)c1ccc(CNS(=O)(=O)c2ccc3[nH]c4c(c3c2)CCCCC4)cc1 -37.3%
COc1ccc(Br)cc1CNC(=O)c1nn(-c2ccc(C)cc2)c(=O)c2c1c1ccccc1n2C -2.28%
NC(=O)NO
Clc1ccccc1C(c1ccccc1)(c1ccccc1)n1ccnc1
Cc1ccccc1-c1noc(-c2cccnc2N(C)Cc2ccc(Cl)cc2)n1 -20.1%
COc1ccc(CCNC(=O)CSc2nnnn2-c2cccc(C(C)=O)c2)cc1OC -13.6%
CO/N=C1\CN(c2nc3c(cc2F)c(=O)c(C(=O)O)cn3C2CC2)CC1CN (stereo not given) -12.1%
O=C(C1CC1)N1CCN(c2nc3c(Cl)cccc3s2)CC1 23.8%
CCOC(=O)c1cccc(NC(=O)CCC(=O)N2CC(C)Oc3ccc(C)cc32)c1 (stereo not given) -15.7%
CC[C@]1(O)C[C@@H]2CN(CCc3c([nH]c4ccccc34)[C@@](C(=O)OC)(c3cc4c(cc3OC)N(C)[C@H]3[C@@](O)(C(=O)OC)[C@H](OC(C)=O)[C@]5(CC)C=CCN6CC[C@]43[C@@H]65)C2)C1
Cc1ccc(C(=O)COC(=O)C(Cc2c[nH]c3ccccc23)NC(=O)c2ccc(C(C)(C)C)cc2)cc1 (stereo not given) -5.51%
Cc1cc(C)cc(NC(=O)CSc2nc(=O)n(Cc3ccccn3)c3c2CCC3)c1 -8.34%
CCOC(=O)C(C)Sc1nc(-c2ccccc2Cl)cc(-c2ccccc2)c1C#N (stereo not given) 8.18%
CCN(c1ccccc1)S(=O)(=O)c1ccc(-c2cc(C)no2)s1 -31.4%
Cc1ccc2[nH]c(=O)c(CN(C(=O)c3cccc(Cl)c3)C(C)(C)C)cc2c1 2.11%
Cc1ccccc1C(=O)Nc1cccc(C(=O)OCc2cc(=O)n3ccsc3n2)c1 19.7%
Cc1cccc(Oc2nc3c(c(=O)n(C)c(=O)n3C)n2Cc2ccccc2)c1C 3.03%
COc1ccc(-n2cc(-c3ccccc3)c3c(NC4CCCC4)ncnc32)cc1 -22.7%
C#C[C@]1(O)CC[C@@H]2[C@@H]3CCc4cc(O)ccc4[C@H]3CC[C@@]21C -34.8%
Cc1cccc(C)c1OCc1cc(=O)n2c3c(sc2n1)CCCC3 -9.84%
CC(C)CC(=O)Nc1cc(-c2ccccc2F)nn1-c1ccccc1 -15.1%
CC1=C(C(=O)Nc2ccc(C)cc2C)C(c2ccc(C(=O)O)cc2)n2nc(SCc3ccccc3)nc2N1 (stereo not given) -5.56%
CCOc1ccc(CNC(=O)CC(C)n2nc(C)cc2C)cc1OC (stereo not given) -14.6%
Cc1ccc2c(c1)c1c(c(=O)n(-c3ccccc3)c(=O)n1CC(=O)c1ccc(F)cc1)n2C -11.2%
Cc1ccc(NC(=O)c2ccc(CN3CC(=O)N4CCCCC4C3=O)cc2)cc1 (stereo not given) 5.08%
CCc1cccc(NC(=O)Cn2c(=O)n(-c3cccc(Cl)c3)c(=O)c3c2c2cc(C)ccc2n3C)c1 -12.6%
COc1ccc(OC)c(CNC(=O)c2cnc3c(C)cccn3c2=O)c1 -3.35%
CCc1nn2c(=O)cc(COC(=O)c3ccc(NC(=O)COc4ccc(C)cc4)cc3)nc2s1 -11.7%
Cn1c(SCC(=O)N2CCCc3ccccc32)ncc(C(=O)Nc2ccccc2)c1=O -25.5%
Cc1cc(C)cc(NC(=O)c2cnc3sc(N4CCCC4)nn3c2=O)c1 -22.6%
CCOC(=O)c1c(S(=O)(=O)N2CCC(C(=O)Nc3ccc(C)cc3C)CC2)c(C)n(C)c1C 16.5%
CCc1ccccc1NC(=O)c1nnn(Cc2ccc(Cl)cc2)c1N -14.7%
C[C@@H]1CC[C@@]2(OC1)OC1CC3C4CC=C5CC(O)CCC5(C)C4CCC3(C)C1[C@@H]2C (stereo not given in full) -0.428%
COCCNC(=O)CSc1nc(-c2ccccc2)[nH]c1-c1ccc(OC)cc1 -15.7%
Cc1cc(CN2CCN(c3cccc(C)c3C)CC2)cs1 -12.2%
CCOC(=O)C1=C(CN2CCN(c3ccc(OC)cc3)CC2)NC(=O)NC1c1ccc(Cl)cc1 (stereo not given) -25%
CCOc1ccc(NC(=O)C2CCCN(S(=O)(=O)c3c(C)noc3/C=C/N(C)C)C2)cc1 (stereo not given) -23.4%
COc1cccc(-n2c(SCC(=O)Nc3nnc(C)s3)nc3c([nH]c4ccccc43)c2=O)c1 -24.3%
CC(C)Cn1c(=O)c2sccc2n2c(CCCC(=O)N3CCN(c4ccc(F)cc4)CC3)nnc12 3.02%
Fc1ccc2[nH]c(-c3cccs3)cc2c1 14.7%
O=C(Nc1cccc(C(F)(F)F)c1)c1cc2nc(-c3ccc4c(c3)OCO4)cc(C(F)(F)F)n2n1 -6.36% [at 11.5 µM, percent change from vehicle, -100% = no light]
NCCc1nc2cccnc2n1-c1ccccc1 0.756%
Cc1ccc(-c2nc(CSc3nncn4c3cc3occc34)c(C)o2)cc1 1.7%
COc1ccc(C)cc1NC(=O)N1CC(C)Sc2ccccc21 (stereo not given) -11.7%
Cc1ccc(Cn2cc(C(=O)c3ccc4c(c3)OCO4)c(=O)c3cc(C)ccc32)cc1 -28.3%
CC(C)(C)C(O)/C=C/c1ccc2c(c1)OCO2 (stereo not given) 13.1%
Cc1cc(C)cc(NC(=O)Nc2nnc(N(C)C3CCCCC3)s2)c1 0%
COc1ccccc1-c1noc(CCCC(=O)NCc2ccco2)n1 -15.4%
COc1cc(NC(=O)Cn2c(=O)n(CC3CCCO3)c(=O)c3ccccc32)cc(OC)c1 (stereo not given) -8.58%
COc1ccc2sc(N(Cc3cccnc3)C(=O)COc3ccccc3)nc2c1 0.846%
CC(=O)c1ccc(NS(=O)(=O)c2ccc(-c3cnc(C4CC4)o3)cc2)cc1 -32.8%
CCCCc1nn2c(=O)cc(COC(=O)c3ccc(NC(=O)C(CC)CC)cc3)nc2s1 -49.7%
Cc1ccc(NC(=O)c2cc3nc(-c4ccccc4)cc(-c4ccccc4)n3n2)cc1 -3.06%
CCn1cnc2c(=O)oc3ccc(S(=O)(=O)Nc4ccc(OC)cc4)cc3c21 -7.88%
COc1ccc(CCNC(=O)c2ccc(Cn3c(=O)c4ccccc4n(Cc4cccc(C)c4)c3=O)cc2)cc1OC -3.91%
CCOCCCn1c(=N)c(C(=O)NC2CCCC2)cc2c(=O)n3cc(C)ccc3nc21 -3.56%
CCC1CCCCN1S(=O)(=O)c1cc(C(=O)Nc2ccc(C)c(F)c2)ccc1F (stereo not given) -38.8%
COc1ccccc1Cc1nc2ccccc2nc1SCC(=O)Nc1cc(Cl)ccc1OC -9.11%
COc1ccc(-n2c(SCC(=O)N3CCc4ccccc43)nc3c([nH]c4ccccc43)c2=O)cc1 -4.73%
COc1ccc(C(=O)Nc2ccc3oc(-c4ccc(F)cc4Cl)nc3c2)cc1 -3.59%
CCOC(=O)C1CCCN(C(=O)Cn2ncc3c(C)n(Cc4ccccc4Cl)c(C)c3c2=O)C1 (stereo not given) -30.4%
CCCc1nc2ccccc2n1CC(O)COc1ccc(C(=O)OC)cc1 (stereo not given) -22.5%
CCC1CCCCN1S(=O)(=O)c1ccc(C(=O)Nc2sc3c(c2C(N)=O)CCC3)cc1 (stereo not given) -27.4%
O=C(CSc1nnc(-c2ccccc2F)o1)Nc1cccc(C(F)(F)F)c1 -5.76%
O=C(Nc1ccc(Cl)cc1F)c1cnc2sc(N3CCOCC3)nn2c1=O -17.7%
COCCCN1C(=O)c2ccccc2CC1(C)C(=O)NC1CCCCC1 (stereo not given) -5.46%
COc1ccc(C2C(C(=O)Nc3ccc(Cl)cc3)=C(C)Nc3nc(SCc4cccc(C)c4)nn32)cc1OC (stereo not given) -2.68%
CC(C)(C)OC(=O)N1CCC(c2c(C(=O)N3CCN(c4ccccn4)CC3)cnn2-c2ccccc2)CC1 -1.13%
COc1ccc(-c2nc(C)c(CCNC(=O)c3cccs3)s2)cc1OC 29.9%
COc1ccccc1CNc1cc(C)nc2nc(-c3ccc(C)cc3)nn12 -1.29%
CCN(CCCc1ccccc1)CCCc1ccccc1 -10.3%
Cc1ccc2nc(NC(=O)CSc3nccn3-c3ccc(Cl)cc3)sc2c1 -26.8%
O=C(CCN1CCN2CCCC2C1)N1c2ccccc2Sc2ccc(Cl)cc21 (stereo not given) -11.7% [at 25.1 µM, percent change from vehicle, -100% = no light]
C[C@@H](C1=C(CCN(C)C)Cc2ccccc21)c1ccccn1 -4.1%
CCCCC(CC)COC(=O)c1ccccc1O (stereo not given) -4.45%
Cc1ccc(C)c(NC(=O)Cn2c(=O)n(-c3ccc(CC(=O)NCC4CCCO4)cc3)c(=O)c3ccccc32)c1 (stereo not given) -8.25%
Cc1ccc(OCC(=O)NCC2(N(C)C)CCCCC2)cc1C 6.47%
CCCOc1ccc(C(=O)NCC2OCCc3ccccc32)cc1 (stereo not given) 7.22%
Cc1ccc(CNc2oc(-c3ccc(COc4ccc(C)cc4)o3)nc2C#N)cc1 -19%
Cc1ccc(NC(=O)c2c(C)nc3sc(C(=O)Nc4ccc(F)cc4)c(N)c3c2-c2ccc(C)o2)c(C)c1 12%
CC1CN(C(=O)CCC(=O)Nc2cc(F)ccc2F)c2ccccc2S1 (stereo not given) -14.7%

From PubChem BioAssay AID1508624 (National Center for Advancing Translational Sciences (NCATS), 2021)
